# Reference: PubChem BioAssay AID1508642 (National Center for Advancing Translational Sciences (NCATS), 2021)
# About 200 (0.47%) of roughly 43,000 compounds were called active. Inconclusive results (about 12%) are left out. Calls follow the shape of the dose curve; as a rule, active = well fitted cell-killing curve with a large enough effect; inconclusive = small, poorly fitted or top-dose-only effect, or effect the other way; inactive = flat fitted curve, though single readings scatter. Some of the results follow.
# Assay: Cell viability qHTS assay in S16 Pmp22-F2sN cells; also: nearly all actives have a fitted effect of over 65% in size
# Conditions: S16 Pmp22-F2sN Schwann cells (luciferase reporters placed in the Pmp22 gene) viability, CellTiter-Glo, 24 h; series mostly up to 57.5 µM; activity change, negative = cytotoxicity: at the top concentration
# Method in brief: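 S16 Schwann cells carrying the Pmp22-F2sN reporter, seeded in 1536-well format, were exposed to library compounds for 24 h at 37C. Viability was read as CellTiter-Glo luminescence after 15 min at room temperature.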
# % is scaled to controls: 0 for no effect and ±100 for the full control effect.
row,SMILES,"activity change, negative = cytotoxicity"
1,CCOc1ccc(CNS(=O)(=O)c2cc(-c3cc(C)no3)ccc2C)cc1OC,inactive: -0.491%
2,COc1ccc(-c2cnc(C)o2)cc1S(=O)(=O)Nc1ccc(C)c(N(C)C)c1,inactive: 6.85%
3,Cc1ccc(NC(=O)CCC(=O)N2Cc3ccccc3Oc3ncccc32)cc1,inactive: -16.2%
4,O=C(CCc1ccccc1)NC1CC(=O)N(c2ccccc2)C1 (stereo unspecified),inactive: 8.56%
5,COc1cccc(OC)c1C(=O)Nc1ccc2c(c1)N(C(C)=O)CCC2,inactive: -0.796%
6,CCc1cnc2c(c1SCC(=O)Nc1ccc(C)cc1C)c(=O)n(C)c(=O)n2C,inactive: 8.55%
7,CCCn1c(=O)c2sccc2n2c(CCCC(=O)Nc3cccc(CC)c3)nnc12,inactive: -9.64%
8,CCn1c(=O)cc(SCC(=O)NCCc2ccc(OC)cc2OC)c2ccccc21,inactive: 4.9%
9,Cn1c(=O)[nH]c2cc(-c3noc(-c4ccc(F)cc4)n3)ccc21,inactive: 0.601%
10,COCCCNC(=O)CSc1nc(-c2ccccc2)[nH]c1-c1ccc(C)cc1,inactive: -9.07%
11,CCc1ccc(-n2c(=O)c3c4c(sc3n(CC(=O)NC(C)CC)c2=O)CCCC4)cc1 (stereo unspecified),inactive: 5.95%
12,COc1ccccc1CNC(=O)CCCCn1c(=O)c2ccccc2n(CC(=O)Nc2cc(Cl)ccc2C)c1=O,inactive: -0.985%
13,O=C(O)CCc1ccc(-c2ccccc2)n1CC(=O)Nc1ccccc1C(F)(F)F,inactive: 6.43%
14,COc1ccc2c(c1)c1c(c(=O)n(-c3ccccc3C)c(=O)n1CC(=O)Nc1c(C)cccc1C)n2C,inactive: -1.18%
15,Cc1ccccc1Nc1nn2c(=O)c3ccc(C(=O)N4CCCC(C)C4)cc3nc2s1 (stereo unspecified),inactive: 1.56%
16,O=c1c2[nH]c3ccccc3c2nc(SCc2cccc(F)c2)n1-c1ccccc1,inactive: 4.26%
17,Cc1ccc(-c2ccc(=O)n(CC(=O)NCc3ccc(F)cc3)n2)cc1,inactive: -0.087%
18,CCC(C)NC(=O)C1CCC(CNS(=O)(=O)c2ccc(Cl)cc2)CC1 (stereo unspecified),inactive: -8.29%
19,COc1ccc(-c2nc3n(n2)C(=O)CC(c2ccc(Cl)cc2)S3)cc1 (stereo unspecified),inactive: 3.05%
20,CCn1c2ccccc2c2cc(NC(=O)COc3ccc(C)c(C)c3)ccc21,inactive: -3.37%
21,Cc1ccc2nc3c(cc(C(=O)NC4CCCCC4)c(=N)n3C(C)C)c(=O)n2c1,inactive: 6.86%
22,CCOC(=O)c1ccc(NC(=O)CC2NCCNC2=O)cc1 (stereo unspecified),inactive: -10.7%
23,CCOC(=O)C1CCN(S(=O)(=O)c2ccc3c(c2)NC(=O)C(C)C(=O)N3)CC1 (stereo unspecified),inactive: 0.994%
24,COC(=O)c1c(NC(=O)COc2cc(C)ccc2C(C)C)sc2c1CCC(C)C2 (stereo unspecified),inactive: 6.64%

row,SMILES,"activity change, negative = cytotoxicity"
1,CC(=O)c1ccc(N2CCN(S(=O)(=O)c3ccc(-c4cc(C)no4)s3)CC2)cc1,inactive: -3.15%
2,Cc1cc(C)c(S(=O)(=O)n2cnc(C)c2)c(C)c1,inactive: 12.3%
3,COC(=O)c1ccc(NC(=O)C2CCN(C(=O)c3ccc(F)cc3)CC2)cc1,inactive: 15.2%
4,N#Cc1cccc(NC(=O)C2CCN(c3ncccn3)CC2)c1,inactive: 12.7%
5,CCS(=O)(=O)CCSc1nc(-c2ccc(Br)cc2)cc(-c2ccccc2)c1C#N,inactive: 11.7%
6,Cc1cccc(NC(=O)CCn2nc(-c3ccccc3)c3ccccc3c2=O)c1,inactive: -11.6%
7,CC1=C(C(=O)Nc2ccccc2C)C(c2cccnc2)n2nc(SCc3ccccc3F)nc2N1 (stereo unspecified),inactive: 17%
8,O=C(CCn1c(=O)c2cccn2c2cccnc21)N1CCN(c2cccc(Cl)c2)CC1,inactive: 1.61%
9,CCc1ccc(OCC(=O)N(Cc2ccc(OC)cc2)C2CCS(=O)(=O)C2)cc1 (stereo unspecified),inactive: 10.1%
10,CN1C(=O)Cc2cc(S(=O)(=O)NCCc3ccccc3)ccc21,inactive: 3.85%
11,COc1ccc(NC(=O)C2CCCN2S(=O)(=O)c2ccc3nc(-c4ccccc4)[nH]c3c2)cc1 (stereo unspecified),inactive: 10.5%
12,COc1ccc(CCNC(=O)c2ccc3c(c2)N(Cc2ccc(Cl)cc2)CCS3)c(OC)c1,inactive: -10.4%
13,CCOC(=O)c1cc(-c2ccc(C)cc2)n(CCC(=O)Nc2ccc(OC)c(OC)c2)c1C,inactive: -17.4%
14,COCCCNC(=O)Cn1cnc2sc(C)c(S(=O)(=O)N3CCN(c4ccccc4OC)CC3)c2c1=O,inactive: -2.54%
15,CCN1CCN(C(=O)c2ccc3c(c2)N(Cc2cccc(F)c2)C(=O)c2ccccc2S3)CC1,inactive: -0.459%
16,COc1ccc(-c2nc3sc(CCNC(=O)C(=O)Nc4c(C)cccc4C)c(C)n3n2)cc1,inactive: 0.967%
17,CC1CCCN(CCCNC(=O)CN2C(=O)CSc3ccc(S(=O)(=O)N4CCOCC4)cc32)C1 (stereo unspecified),inactive: 19%
18,COc1ccc(N2CCN(C(=O)c3oc4ccccc4c3NC(=O)c3ccccc3OC)CC2)cc1,inactive: -3.3%
19,CCOc1ccccc1NC(=O)Cn1nnc(C(=O)Nc2ccc(C)c(C)c2)c1N,inactive: 1.44%
20,Cc1c(C(=O)N2CCC(C)CC2)c(S(=O)(=O)N2CCN(c3ccc(Cl)cc3)CC2)c(C)n1C,inactive: 0.676%
21,CC(C)(C)OC(=O)N1CCC(c2c(C(=O)NC3CCCCC3)cnn2-c2cccc(Cl)c2)CC1,inactive: -6.79%
22,Cn1nccc1C(=O)NCc1ccc2c(c1)CCN2C(=O)c1ccccc1,inactive: 6%
23,Cc1ccc(Cl)cc1N1CCN(S(=O)(=O)c2cc3[nH]c(=O)c(=O)[nH]c3cc2C)CC1,inactive: 4.22%
24,O=C(Cn1c(=O)oc2cc(S(=O)(=O)NC3CCCC3)ccc21)Nc1ccc(F)c(F)c1,inactive: 0.0318%

row,SMILES,"activity change, negative = cytotoxicity"
1,COc1cccc(C2CC(=O)Nc3c2c(=O)nc2c(C)cccn32)c1OC (stereo unspecified),inactive: 6.72%
2,Cc1ccc(-c2nc3cc(Cl)ccc3o2)cc1NC(=O)COc1ccc(F)cc1,inactive: 12.3%
3,CC1=C(C(=O)OC2CCCC2)C(c2ccccc2Cl)CC(=O)N1 (stereo unspecified),inactive: 3%
4,CCOC(=O)c1ccc(NC(=O)CN2C(=O)COc3ccc(Cl)cc32)cc1,inactive: 1.53%
5,Cc1cccc(C(=O)Nc2ccccc2SCc2cc(=O)c3cccc(C)c3[nH]2)c1,inactive: -13.4%
6,Cc1nnc(N2CCN(c3ccccc3F)CC2)c2c1nnn2Cc1ccccc1,inactive: -18.4%
7,COc1ccc(NC(=O)CCn2cccn2)cc1OC,inactive: -0.947%
8,CCOCCc1nn2c(=O)cc(COC(=O)C(CC)c3ccccc3)nc2s1 (stereo unspecified),inactive: 9.42%
9,CCCn1cc(S(=O)(=O)c2ccc(CC)cc2)c(=O)c2ccccc21,inactive: -1.83%
10,Cc1ccc2occ(-c3cc(-c4ccc(Cl)cc4)nc4c3COc3ccccc3-4)c(=O)c2c1,inactive: 17.5%
11,Cc1ccc(N(C)C(=O)C2CCCN(c3ncnc4c3nc3n4CCCCC3)C2)cc1C (stereo unspecified),inactive: -26.8%
12,CCCCc1nn2c(=O)cc(COC(=O)c3ccc(NC(=O)C4CCCCC4)cc3)nc2s1,inactive: 11.6%
13,CCOc1ccc(NC(=O)Cn2c(=O)n(CCC(=O)NCCc3ccccc3)c(=O)c3ccccc32)cc1,inactive: 13.3%
14,CCc1nn2c(=O)cc(COC(=O)C(c3ccccc3)c3ccccc3)nc2s1,inactive: 26.8%
15,CCOC(=O)c1ccc(Nc2cc(-c3ccccc3)nc(C)n2)cc1,inactive: 3.67%
16,COc1ccc(-n2nc(C(=O)NCCc3cccc(C)c3)c3c4ccccc4n(C)c3c2=O)cc1Cl,inactive: 0.772%
17,Cc1cc(C)cc(N(CC(=O)NCc2ccccc2Cl)S(=O)(=O)c2c(C)noc2C)c1,inactive: 1.39%
18,COC(=O)CC1Oc2ccccc2-n2cc(-c3ccc(Cl)cc3)nc21 (stereo unspecified),inactive: 24.1%
19,Cc1ccccc1C(=O)Nc1nnc(S(=O)(=O)N2CCCCCC2)s1,inactive: 4.99%
20,COc1ccc(CNC(=O)Cc2csc3nc(-c4ccc(C)cc4)cn23)cc1,inactive: 17.2%
21,O=C(COc1ccccc1)Nc1ccccc1C(=O)OCc1cc(=O)n2nc(C3CC3)sc2n1,inactive: 3.02%
22,CCOC(=O)Cn1c(=O)n(-c2ccccc2OC)c2nc(-c3ccccc3C)nc(C(N)=O)c21,inactive: 17.7%
23,O=C(NCCc1ccccc1)C(=O)Nc1cccc(Br)c1,inactive: -5.23%
24,Oc1c(C(c2ccccc2)N2CCN(c3ccccc3)CC2)sc2nc(-c3ccco3)nn12 (stereo unspecified),inactive: -1.73%

row,SMILES,"activity change, negative = cytotoxicity"
1,Cn1c(CCNC(=O)c2ccco2)nc2cc(NC(=O)COc3ccc(Cl)cc3)ccc21,inactive: 2.18%
2,O=C(CSc1nc(=O)[nH]c2c1CCC2)NCc1ccccc1,inactive: 28.8%
3,Cc1ccc(OCC(=O)Nc2ccc(C(=O)OCc3cc(=O)n4c(C)csc4n3)cc2)cc1,inactive: -10.8%
4,O=C(NCC12CC3CC(CC(C3)C1)C2)c1cc2nc(-c3ccc(F)cc3)cc(C(F)(F)F)n2n1,inactive: 8.69%
5,O=C(Nc1ccc(F)cc1F)c1ccc(-n2cnnc2)cc1,inactive: -7.67%
6,CCc1ccc(C2c3c(oc4ccc(C)cc4c3=O)C(=O)N2c2nc(C)c(C)s2)cc1 (stereo unspecified),inactive: -1.96%
7,COc1cc(NC(=O)Cn2cc(S(=O)(=O)c3ccccc3)c(=O)c3ccccc32)cc(OC)c1,inactive: -0.842%
8,COc1cccc(-c2ccc3c(N)c(C(=O)Nc4ccc(C)c(F)c4)sc3n2)c1,inactive: -0.792%
9,COc1ccc(-c2cc(C(F)(F)F)nc(SCCC(=O)Nc3c(C)cccc3C)n2)cc1,inactive: -5.54%
10,CCc1ccccc1NC(=O)Cc1c(C(=O)O)[nH]c2ccc(Cl)cc12,inactive: 14.6%
11,Cc1ccc(Cn2c(CNC(=O)c3ccccc3Br)nc3cccnc32)cc1,inactive: 2.55%
12,COc1ccc(N2CCN(C(=O)Nc3cccc(C(F)(F)F)c3)CC2)cc1,inactive: -21%
13,CC(C)CNC(=O)C1=CC(c2ccc3c(c2)OCO3)=NS(=O)(=O)N1C,inactive: 2.13%
14,Cc1ccc(-n2c(=O)c3oc4ccccc4c3n(CC(=O)Nc3ccccc3)c2=O)cc1C,inactive: 4.41%
15,Cc1cc(-n2c(C)nc3ccccc3c2=O)ccc1NC(=O)c1cccc([N+](=O)[O-])c1,inactive: 11.7%
16,Cc1cccc(NC(=O)CSc2cc(C)c3ccccc3n2)c1,inactive: 8.34%
17,Cc1ccc(NC(=O)C2CCCN2S(=O)(=O)c2cccc3cccnc23)cc1C (stereo unspecified),inactive: 3.42%
18,Cn1ccnc1SCC(=O)Nc1cc(Cl)ccc1Cl,inactive: 17.7%
19,CCCCNC(=O)CCc1c(C)nc2c(c(C)nn2-c2ccccc2)c1C,inactive: 16%
20,CCN(CC)c1ccc(C2C(C(N)=O)=C(C)Nc3ncnn32)cc1 (stereo unspecified),inactive: 4.04%
21,CCC(C(=O)Nc1ccc(C(C)=O)cc1)n1c(C)c2cnn(-c3ccccc3)c(=O)c2c1C (stereo unspecified),inactive: -0.513%
22,COc1ccc(NS(=O)(=O)c2ccc3[nH]c4c(c3c2)CCCCCC4)cc1,inactive: -18.6%
23,Cn1c(=O)c2c(nc(SCC(=O)Nc3ccc(F)cc3)n2Cc2ccccc2)n(C)c1=O,inactive: -4.41%
24,Fc1ccc(CNc2nc(-c3ccccc3)cc(C(F)(F)F)n2)cc1,inactive: 2.22%
